# The supplement of paper PMC8728848
# About 410 targets per protein were measured; listed, in parts, are those with the strongest signals and a random draw of the rest.
# Key:
# Assay in all cases: glycan array binding signal (z-score within array); higher = stronger binding
# Settings in all cases: glycan notation: IUPAC condensed, linker removed
# [1] = tested on: Neu5Ac(a2-3)Gal(b1-4)GlcNAc(b1-3)Gal(b1-4)GlcNAc
# Method in brief: (§1)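 Glycan array data were curated from 3228 arrays in the Consortium for Functional Glycomics database and kept only where the protein sequence was available. Glycan names were converted to IUPAC-condensed notation, and columns mapping to the same glycan were averaged. The binding signal is a within-array Z-score, averaged across arrays of the same protein sequence at different concentrations or buffers and across linkers. Negative Z-scores can be read as non-binding.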
# [2] = tested on: Neu5Ac(a2-3)Gal(b1-4)GlcNAc(b1-6)[Gal(b1-3)]GalNAc
# Method in brief: as §1
# [3] = tested on: Neu5Ac(a2-3)Gal(b1-4)GlcNAc
# Method in brief: as §1
# Neu5Ac(a2-3)Gal(b1-4)Glc = tested on: Neu5Ac(a2-3)Gal(b1-4)Glc
# Method in brief: as §1
# [4] = tested on: Neu5Ac(a2-3)Gal(b1-4)GlcNAc(b1-3)Gal(b1-4)[Fuc(a1-3)]GlcNAc
# Method in brief: as §1
# [5] = tested on: Neu5Ac(a2-3)Gal(b1-4)GlcNAc6S
# Method in brief: as §1
# [6] = tested on: Neu5Ac(a2-3)Gal(b1-4)GlcNAc(b1-6)GalNAc
# Method in brief: as §1
# [7] = tested on: Neu5Ac(a2-3)Gal(b1-4)GlcNAc(b1-6)[Neu5Ac(a2-3)Gal(b1-3)]GalNAc
# Method in brief: as §1
# [8] = tested on: Neu5Ac(a2-3)Gal(b1-4)GlcNAc(b1-3)GalNAc
# Method in brief: as §1
# [9] = tested on: Neu5Ac(a2-3)Gal(b1-4)GlcNAc(b1-3)[Neu5Ac(a2-3)Gal(b1-4)GlcNAc(b1-6)]GalNAc
# Method in brief: as §1
substance,measurement,setting,value
M-Ficolin G221F A256V (Homo sapiens) (chain not printed),glycan array binding signal (z-score),[1],4.91
same,glycan array binding signal (z-score),[2],-0.117
same,glycan array binding signal (z-score),[3],2.23
L-Ficolin (Homo sapiens) (chain not printed),glycan array binding signal (z-score),Neu5Ac(a2-3)Gal(b1-4)Glc,-0.385
Angiogenin (Homo sapiens) (chain not printed),glycan array binding signal (z-score),[4],1.96
same,glycan array binding signal (z-score),[5],1.82
Gal 3 (Homo sapiens) (chain not printed),glycan array binding signal (z-score),[6],-0.229
Siglec-2 (Homo sapiens) (chain not printed),glycan array binding signal (z-score),[7],-0.213
CLEC-2 (Homo sapiens) (chain not printed),glycan array binding signal (z-score),[8],0.044
Gal 8-short (Homo sapiens) (chain not printed),glycan array binding signal (z-score),Neu5Ac(a2-3)Gal(b1-4)Glc,1.19
Thrombomodulin Extracellular (Homo sapiens) (chain not printed),glycan array binding signal (z-score),[9],-0.119
Collectin K1 (Homo sapiens) (chain not printed),glycan array binding signal (z-score),[1],-0.232
same,glycan array binding signal (z-score),[3],-0.161
VWF (Homo sapiens) (chain not printed),glycan array binding signal (z-score),[2],-0.427
same,glycan array binding signal (z-score),Neu5Ac(a2-3)Gal(b1-4)Glc,-0.24
M-Ficolin Y271F (Homo sapiens) (chain not printed),glycan array binding signal (z-score),[5],-0.09
same,glycan array binding signal (z-score),[3],-0.031
MBP (Homo sapiens) (chain not printed),glycan array binding signal (z-score),[1],-0.382
same,glycan array binding signal (z-score),[4],-0.27
Serum Amyloid P component (Homo sapiens) (chain not printed),glycan array binding signal (z-score),[2],1.23
NCAM1 (Homo sapiens) (chain not printed),glycan array binding signal (z-score),[4],-0.311
same,glycan array binding signal (z-score),[3],-0.275
Meso764 (Homo sapiens) (chain not printed),glycan array binding signal (z-score),[1],-0.444
